Assay results taken from the antibiotic and cytotoxicity screens of Wong et al. (2023).
The list shows a part of the results.

system: HepG2; assay: cytotoxicity call (relative viability < 0.9); settings: 10 µM

| Compound | cytotoxicity call |
| --- | --- |
| C[C@@H]1CCCCO[C@@H](CN(C)C(=O)c2ccccc2)[C@H](C)CN([C@H](C)CO)C(=O)c2cc(NC(=O)Nc3ccccc3)ccc2O1 | inactive |
| CC1=CC=CC2=NC(=O)C[C@](C)(C(=O)O)N12 | inactive |
| C[C@@H]1CCCCO[C@@H](CN(C)CC2CCCCC2)[C@H](C)CN([C@@H](C)CO)C(=O)c2cc(NC(=O)C3CCCCC3)ccc2O1 | inactive |
| C[C@@H]1CN([C@H](C)CO)C(=O)Cc2cc(NC(=O)Cc3ccccc3)ccc2O[C@@H]1CN(C)Cc1ccc(Cl)c(Cl)c1 | active |
| C[C@@H]1CN([C@@H](C)CO)C(=O)c2ccccc2-c2ccccc2CO[C@H]1CN(C)C(=O)Nc1cccc(F)c1 | inactive |
| Cc1ccc(-c2nc(Nc3cccc(Cl)c3)sc2C)cc1 | inactive |
| C=CC[C@@H](CC(=O)NCCO)C(=O)N[C@@H](COC(=O)[C@@H](CC=C)CC(=O)OC(C)(C)C)Cc1ccccc1 | inactive |
| C[C@@H]1CN([C@H](C)CO)C(=O)c2cc(NC(=O)Nc3ccccc3)ccc2O[C@H]1CN(C)C(=O)Nc1cccc2ccccc12 | inactive |
| O=C(C[C@H]1CC[C@@H](NC(=O)c2cccnc2)[C@@H](CO)O1)NCCN1CCCCC1 | inactive |
| Cn1cnc(S(=O)(=O)N2C[C@@H](O)COC[C@@H]3O[C@@H](CC(=O)NC4Cc5ccccc5C4)CC[C@H]32)c1 | inactive |
| C[C@@H]1CCCCO[C@@H](CN(C)Cc2ccc(Cl)c(Cl)c2)[C@H](C)CN([C@@H](C)CO)C(=O)c2cc(NC(=O)Nc3ccccc3)ccc2O1 | inactive |
| CC(C)NC(=O)Nc1cccc2c1O[C@@H](CN(C)Cc1ccc(-c3ccccc3)cc1)[C@H](C)CN([C@H](C)CO)C2=O | inactive |
| C[C@@H]1CN([C@H](C)CO)C(=O)c2cc(NC(=O)Nc3cccc4ccccc34)ccc2O[C@H]1CN(C)C(=O)Nc1ccc(C(F)(F)F)cc1 | inactive |
| C[C@H]1CN([C@@H](C)CO)C(=O)c2cc(NC(=O)Cn3cnnn3)ccc2O[C@@H]1CN(C)Cc1ccc(C(=O)O)cc1 | inactive |
| COc1ccc(C(C)(C)N)cc1OC | inactive |
| C[C@@H]1CN([C@H](C)CO)S(=O)(=O)c2ccc(Br)cc2O[C@H]1CN(C)C(=O)Cc1ccccn1 | inactive |
| COc1ccc(NC(=O)N(C)C[C@H]2Oc3ccc(NS(=O)(=O)c4cn(C)cn4)cc3CC(=O)N([C@@H](C)CO)C[C@@H]2C)cc1 | inactive |
| C[C@@H]1CN([C@H](C)CO)C(=O)c2cc(NC(=O)Cc3ccccc3)ccc2O[C@@H]1CN(C)Cc1ccc(Cl)c(Cl)c1 | inactive |
| C[C@H](CO)N1C[C@H](C)[C@H](CN(C)S(=O)(=O)c2cccs2)Oc2c(NS(=O)(=O)c3ccccc3)cccc2C1=O | inactive |
| COc1cc(N2CCC(N)CC2)ccc1Nc1ncc(Cl)c(-c2c[nH]c3ccccc23)n1 | active |

| Compound | cytotoxicity call |
| --- | --- |
| CC1(C)OC(=O)NC1=O | inactive |
| C[C@@H]1CN([C@H](C)CO)C(=O)c2cccc(NC(=O)NC3CCCCC3)c2O[C@@H]1CN(C)S(C)(=O)=O | inactive |
| COCC#Cc1cnc2c(c1)C(=O)N([C@H](C)CO)C[C@H](C)[C@H](CN(C)C(=O)c1cnccn1)O2 | active |
| Cc1ccc(S(=O)(=O)N(C)C[C@H]2OCCCC[C@H](C)Oc3ccc(NC(=O)CCC(F)(F)F)cc3C(=O)N([C@H](C)CO)C[C@H]2C)cc1 | inactive |
| NCCc1nc(-c2ccncc2)no1 | inactive |
| CC(C)COC(=O)CNc1n[nH]c(=O)[nH]c1=O | inactive |
| Cc1noc(C)c1S(=O)(=O)N(C)C[C@H]1Oc2ccc(NS(=O)(=O)c3cccs3)cc2CC(=O)N([C@H](C)CO)C[C@@H]1C | inactive |
| CN(C)CCCNC(=O)C[C@@H]1CC[C@H]2[C@@H](COc3ccc(NS(C)(=O)=O)cc3C(=O)N2C)O1 | inactive |
| Cc1noc(C)c1NC(=O)N(C)C[C@H]1Oc2ccc(NC(=O)Cn3cnnn3)cc2C(=O)N([C@@H](C)CO)C[C@@H]1C | inactive |
| CO[C@H]1O[C@H](CO)[C@@H](OC(=O)Nc2ccc3c(c2)OCO3)[C@H](OC(=O)Nc2ccc3c(c2)OCO3)[C@@H]1OC(=O)Nc1ccc2c(c1)OCO2 | active |
| C[C@@H]1CCCCO[C@@H](CN(C)C(=O)Cc2ccccc2)[C@@H](C)CN([C@H](C)CO)C(=O)c2cc(NC(=O)Nc3ccccc3)ccc2O1 | inactive |
| O=S(=O)(O)NC1CCCCC1 | active |
| Cc1noc(C)c1S(=O)(=O)Nc1ccc2c(c1)C(=O)N([C@@H](C)CO)C[C@@H](C)[C@@H](CN(C)C(=O)Nc1ccc(F)cc1)OCCCC[C@@H](C)O2 | inactive |
| C[C@H](CO)N1C[C@H](C)[C@@H](CN(C)Cc2ccc(Cl)c(Cl)c2)Oc2ccc(NC(=O)Nc3cccc4ccccc34)cc2CC1=O | inactive |
| Cc1ccc(S[C@]2(C(=O)NCC(C)C)CC(=O)N(Cc3ccccc3C(F)(F)F)[C@@H]2c2ccc(CO)cc2)cc1 | inactive |
| C[C@H](CO)N1C[C@H](C)[C@H](CN(C)C(=O)c2ccncc2)OCCCC[C@H](C)Oc2ccc(NS(=O)(=O)c3ccc(Cl)cc3)cc2C1=O | inactive |
| C[C@@H]1CCCCO[C@@H](CN(C)Cc2ccc(C(F)(F)F)cc2)[C@H](C)CN([C@@H](C)CO)C(=O)c2cc(NC(=O)Nc3ccc(F)cc3)ccc2O1 | inactive |
| C[C@@H]1CCCCO[C@@H](CN(C)Cc2ccc(Cl)c(Cl)c2)[C@@H](C)CN([C@H](C)CO)C(=O)c2cc(NC(=O)CCCCCC(=O)Nc3ccccc3N)ccc2O1 | inactive |
| Cc1cnc(C(=O)Nc2nn[nH]n2)cn1 | inactive |
| CC(COc1ccccc1)NC(C)C(O)c1ccc(O)cc1.Cl (stereo not given) | inactive |
